# Experimental data from PubChem BioAssay AID624417 (National Center for Advancing Translational Sciences (NCATS), 2012).
# About 6,400 (1.6%) of roughly 410,000 compounds were called active. The shares of active, inactive and inconclusive entries below differ from those in the screen. Calls follow the shape of the dose curve; as a rule, active = well fitted inhibition curve with a large enough effect; inconclusive = small, poorly fitted or top-dose-only effect; inactive = no such curve, though single readings can be large or run the other way. No potency is given beside an inconclusive call; the fits are too rough.
# Molecular target: Glucagon-like peptide 1 receptor (Homo sapiens) (UniProt P43220)
# Experiment: qHTS of GLP-1 Receptor Inverse Agonists (Inhibition Mode); also: nearly all actives have a fitted effect of over 55% in size
# Conditions: HEK293 GLP-1R CRE-luciferase, luminescence, 24 h, GLP-1R form is constitutively active; series mostly up to 38.3 µM
# In short: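 Inverse agonists were sought by their lowering of basal cAMP reporter luciferase output in HEK293 cells stably carrying constitutively active human GLP-1R, after 24 h compound treatment.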
# Potency is read from the fitted curve at half-maximal effect; tags tell the direction and shape of the fitted curve.
# Sequence of UniProt P43220 (P43220 whole entry, looked up): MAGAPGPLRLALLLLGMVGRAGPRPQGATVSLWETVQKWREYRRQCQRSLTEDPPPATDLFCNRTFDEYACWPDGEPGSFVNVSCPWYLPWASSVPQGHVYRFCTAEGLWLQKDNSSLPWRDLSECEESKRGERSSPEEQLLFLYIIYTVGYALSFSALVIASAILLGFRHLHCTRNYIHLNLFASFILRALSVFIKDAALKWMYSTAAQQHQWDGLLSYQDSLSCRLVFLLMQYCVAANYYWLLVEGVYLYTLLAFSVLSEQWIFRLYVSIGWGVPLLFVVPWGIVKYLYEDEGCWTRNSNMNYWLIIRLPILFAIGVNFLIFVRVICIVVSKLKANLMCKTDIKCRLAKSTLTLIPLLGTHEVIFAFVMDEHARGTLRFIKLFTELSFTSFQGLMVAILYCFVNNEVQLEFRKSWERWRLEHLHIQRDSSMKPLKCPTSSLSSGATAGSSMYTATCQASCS
row,Structure (SMILES),Potency
1,CC1CC2OC(=O)C3(C)CCCC(C)(C23)C1(O)CCc1ccoc1 (configuration not stated),"inconclusive [inhibitor, partial curve, poor fit]"
2,Cc1ccc(NC2=NCC(Cc3ccc(Br)cc3)S2)cc1 (configuration not stated),"inconclusive [inhibitor, single point]"
3,O=C(N/N=C\c1ccncc1)c1ccccc1O,inactive
4,O=C(NC1CCCC1)c1ccc2nc(-c3ccco3)c(-c3ccco3)nc2c1,"inconclusive [inhibitor, single point]"
5,CCN(CC)c1ccc(NC(=O)COc2ccccc2C)cc1S(=O)(=O)Nc1ccccc1OC,"inconclusive [inhibitor, partial curve]"
6,CCC1NC(=O)c2cccnc2-n2c1nc1ccc(C)cc1c2=O (configuration not stated),inactive
7,COc1ccccc1N1CCN(CCCNC(=O)c2cnn(-c3ccccc3Cl)c2C2CCN(C(=O)OC(C)(C)C)CC2)CC1,"inconclusive [inhibitor, single point]"
8,O=C(CN1CCN(S(=O)(=O)c2ccccc2)CC1)Nc1ccc2c(c1)CCC2,"inconclusive [inhibitor, partial curve, poor fit]"
9,CC1(C)NC(=O)N(CC(O)CNC23CC4CC(CC(C4)C2)C3)C1=O (configuration not stated),inactive
10,CC1=C(C(=O)Nc2c(C)cc(C)cc2C)C2(CCN(C(C)C)CC2)OC1=O,inactive
11,Cc1nc2cc(-c3ccc(Cl)cc3)nn2c(NCCN(C)C)c1C,"inconclusive [inhibitor, partial curve, poor fit]"
12,CC(C)(C)c1ccc(C(=O)N2CCC(C(=O)NC3CCCCCC3)CC2)cc1,"inconclusive [inhibitor, partial curve, poor fit]"
13,O=C(NC(=S)Nc1ccccc1N1CCCC1)c1ccc([N+](=O)[O-])cc1,"inconclusive [inhibitor, partial curve, poor fit]"
14,Cc1nc(SCC(=O)NCC(F)(F)F)c2c(-c3cccs3)csc2n1,"inconclusive [inhibitor, partial curve, poor fit]"
15,O=C(NCc1ccccc1C(F)(F)F)c1cccc2c1C(=O)c1ccc(N3CCCCC3)cc1S2(=O)=O,"inconclusive [inhibitor, full curve, poor fit]"
16,Cc1ccc(CS(=O)Cc2ccc(C(=O)N3CCN(c4cccc(C)c4C)CC3)o2)cc1 (configuration not stated),"inconclusive [inhibitor, single point]"
17,O=C(NCCCCc1ccccc1)c1cccc([N+](=O)[O-])c1,"inconclusive [inhibitor, partial curve]"
